Here are results for 2 molecules from patent publication US20230211007A1 (published 2023).

The target in the assay is T1, VEGF-165 (UniProt P15692-4 27-191).
T1 construct: Bought reagent
T1 sequence (looked up): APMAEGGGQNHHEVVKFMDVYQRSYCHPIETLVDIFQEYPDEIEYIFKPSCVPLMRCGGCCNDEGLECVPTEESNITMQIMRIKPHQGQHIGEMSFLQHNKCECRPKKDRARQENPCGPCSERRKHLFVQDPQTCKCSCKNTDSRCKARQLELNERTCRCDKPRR
The assay can be described thus: BLI (Octet), conjugate on Pro A probe, VEGF-165 50-200 nM in solution. Background: Biolayer interferometry detects binding as a change in optical thickness at a sensor tip.

B1: 166ADC (anti-VEGF 166C mutant coupled to DC, polypeptide-linker) (other)
heavy: EVQLVESGGGLVQPGGSLRLSCAASGYTFTNYGMNWVRQAPGKGLEWVGWINTYTGEPTYAADFKRRFTFSLDTSKSTAYLQMNSLRAEDTAVYYCAKYPHYYGSSHWYFDVWGQGTLVTVSSASTKGPSVFPLAPSSKSTSGGTAALGCLVKDYFPEPVTVSWNSGALTSGVHTFPAVLQSSGLSLSSVVTVPSSSLGTQTYICNVNHKPSNTKVDKKV[human IgG1 Fc not written out]
light: DIQMTQSPSSLSASVGDRVTITCSASQDISNYLNWYQQKPGKAPKVLIYFTSSLHSGVPSRFSGSGSGTDFTLTISSLQPEDFATYYCQQYSTVPWTFGQGTKVEIKRTVAAPSVFIFPPSDEQLKSGTASVVCLLNNFYPREAKVQWKVDNALQSGNSQESVTECDSKDSTYSLSSTLTLSKADYEKHKVYACEVTHQGLSSPVTKSFNRGEC
peptide: QKYQPLDEKDKTLYDQFMLQQG
modifications: Lys(Ac) at 2 and 9; C-terminal amide (CONH2); the underlined Lys (printed 'Lu', position 11) linked to the linker formamide-PEG4-NHS; Cys at Kabat position 166 coupled to DC (polypeptide-linker)
notes: Antibody-polypeptide conjugate: Ang2-neutralising peptide joined through a linker to the light chain cysteine; also called conjugate; antibody-polypeptide conjugate
As to B1, the Kd (usually a measure of binding affinity in units of concentration) amounted to 1.96 nM.

B2: 124ADC (anti-VEGF 124C mutant coupled to DC, polypeptide-linker) (other)
heavy: EVQLVESGGGLVQPGGSLRLSCAASGYTFTNYGMNWVRQAPGKGLEWVGWINTYTGEPTYAADFKRRFTFSLDTSKSTAYLQMNSLRAEDTAVYYCAKYPHYYGSSHWYFDVWGQGTLVTVSSASTKGPSVFPLAPSSKSTSGGTAALGCLVKDYFPEPVTVSWNSGALTSGVHTFPAVLQSSGLSLSSVVTVPSSSLGTQTYICNVNHKPSNTKVDKKV[human IgG1 Fc not written out]
light: DIQMTQSPSSLSASVGDRVTITCSASQDISNYLNWYQQKPGKAPKVLIYFTSSLHSGVPSRFSGSGSGTDFTLTISSLQPEDFATYYCQQYSTVPWTFGQGTKVEIKRTVAAPSVFIFPPSDECLKSGTASVVCLLNNFYPREAKVQWKVDNALQSGNSQESVTEQDSKDSTYSLSSTLTLSKADYEKHKVYACEVTHQGLSSPVTKSFNRGEC
peptide: QKYQPLDEKDKTLYDQFMLQQG
modifications: Lys(Ac) at 2 and 9; C-terminal amide (CONH2); the underlined Lys (printed 'Lu', position 11) linked to the linker formamide-PEG4-NHS; Cys at Kabat position 124 coupled to DC (polypeptide-linker)
notes: Antibody-polypeptide conjugate; also called conjugate; antibody-polypeptide conjugate
Molecule B2 showed a Kd of 0.87 nM.
